Target: ALPP/ALPPL2 on ALPP/ALPPL2 positive cancer cells (MKN1, NCI-H1651, NCI-N87, HPAC)
Assay: cell-based or functional assay

| Binder | % viability remaining, HPAC cells | % viability remaining, MKN1 cells | % viability remaining, NCI-H1651 cells | % viability remaining, NCI-N87 cells | cell killing IC50 @ 96 h, HPAC cells | cell killing IC50 @ 96 h, MKN1 cells | cell killing IC50 @ 96 h, NCI-H1651 cells | cell killing IC50 @ 96 h, NCI-N87 cells |
| --- | --- | --- | --- | --- | --- | --- | --- | --- |
| E10-hFc (S239C)-MA-PEG4-vc-PAB-EDA-PNU159682 (Fc fusion, here or on the partner: MA-PEG4-vc-PAB-EDA-PNU159682 on Cys 239 (S239C, EU numbering); DAR 1.98) QVQLVESGGGLVQAGGSLRLSCAVSGRALSDYNIGWFRQAPGKEREFVARKTWDGSSTRYDDSVKGRFTVSIEDAKNTAYLQMSSLKTEDTAVYYCAAGRYSRARGWEYDYWGQGTQVTVSSGGGGSGGGGSGGGGS[human IgG1 Fc with changes not spelt out] | 0% | 10.5% | 21.1% | 0% | 8 nM | 0.23 nM | 0.38 nM | 9.3 nM |
| F05-hFc (S239C)-MA-PEG4-vc-PAB-EDA-PNU159682 (Fc fusion, here or on the partner: MA-PEG4-vc-PAB-EDA-PNU159682 on Cys 239 (S239C, EU numbering); DAR 1.94) QVQLVESGGGLVQAGGSLRLSCAASGRAFGDYNIGWFRQAPGKEREFVARRTWDGSSTRYDDSVKGRFTVSIDNAKNTAYLQMNSLKTEDTAVYYCAAGRYSRVRGWEYDYWGQGTQVTVSSGGGGSGGGGSGGGGS[human IgG1 Fc with changes not spelt out] | 0% | 8.5% | 19.5% | 0% | 94.6 nM | 0.24 nM | 0.2 nM | 10.5 nM |
| D10-hFc (S239C)-MA-PEG4-vc-PAB-EDA-PNU159682 (Fc fusion, here or on the partner: MA-PEG4-vc-PAB-EDA-PNU159682 on Cys 239 (S239C, EU numbering); DAR 2) QVQLVESGGGLVQPGGSLRLSCAASGSIFSVNTMGWYRQAPGKQRDLVAVATSGGTIHYADSVKGRFTISRDNAKNTVYLQMNSLKPEDTAVYYCNLVVPYGMIAGDHDYWGQGTKVTVSSGGGGSGGGGSGGGGS[human IgG1 Fc with changes not spelt out] | 0% | 8.4% | 10% | 0% | 35.6 nM | 0.25 nM | 13.8 nM | 35.1 nM |
| D10 linker Cys-hFc-vcPAB-MMAE (S442C) (Fc fusion, here or on the partner: MC-vc-PAB-MMAE on the linker Cys and on Cys 442 (S442C, EU numbering); DAR 4.1) QVQLVESGGGLVQPGGSLRLSCAASGSIFSVNTMGWYRQAPGKQRDLVAVATSGGTIHYADSVKGRFTISRDNAKNTVYLQMNSLKPEDTAVYYCNLVVPYGMIAGDHDYWGQGTKVTVSSGCGGSGGGGSGGGGS[human IgG1 Fc with changes not spelt out] |  |  |  | 38.7% |  |  |  | 1.6 nM |
| E06 linker Cys-hFc-vcPAB-MMAE (S442C) (Fc fusion, here or on the partner: MC-vc-PAB-MMAE on the linker Cys and on Cys 442 (S442C, EU numbering); DAR 4.1) QVHLVESGGGLVQAGGSLRLSCAASRRSFSEYAMGWFRQAPGKEREFVAAIGWSGVIEYADSVKGRFTISRDNAKDTVYLQMNSLKPEDTAVYYCAAGLGIRVVSQTPAYWGQGTQVTVSSGCGGSGGGGSGGGGS[human IgG1 Fc with changes not spelt out] |  |  | 27.1% | 40.5% |  |  | 0.81 nM | 0.46 nM |
| E06-hFc (S239C)-MA-PEG4-vc-PAB-EDA-PNU159682 (Fc fusion, here or on the partner: MA-PEG4-vc-PAB-EDA-PNU159682 on Cys 239 (S239C, EU numbering); DAR 1.97) QVHLVESGGGLVQAGGSLRLSCAASRRSFSEYAMGWFRQAPGKEREFVAAIGWSGVIEYADSVKGRFTISRDNAKDTVYLQMNSLKPEDTAVYYCAAGLGIRVVSQTPAYWGQGTQVTVSSGGGGSGGGGSGGGGS[human IgG1 Fc with changes not spelt out] | 0% | 11.6% | 24.5% | 0% | 20 nM | 0.29 nM | 0.54 nM | 33.5 nM |

Target: ALPP/ALPPL2 on ALPP/ALPPL2 positive cancer cells
Assay: cell-based or functional assay

| Binder | IC50 @ 96 h (nM), cell-killing of NCI-H1651 cells (Cell Titre Glo) |
| --- | --- |
| E10-hFc (S239C) [G4S]3 conjugated to MC-vc-PAB-MMAE (Fc fusion, here or on the partner: MC-vc-PAB-MMAE on Cys 239 (S239C, EU numbering); DAR 1.94) QVQLVESGGGLVQAGGSLRLSCAVSGRALSDYNIGWFRQAPGKEREFVARKTWDGSSTRYDDSVKGRFTVSIEDAKNTAYLQMSSLKTEDTAVYYCAAGRYSRARGWEYDYWGQGTQVTVSSGGGGSGGGGSGGGGS[human IgG1 Fc with changes not spelt out] | 154 nM |
| F05-hFc (S239C) [G4S]3 conjugated to MC-vc-PAB-MMAE (Fc fusion, here or on the partner: MC-vc-PAB-MMAE on Cys 239 (S239C, EU numbering); DAR 1.87) QVQLVESGGGLVQAGGSLRLSCAASGRAFGDYNIGWFRQAPGKEREFVARRTWDGSSTRYDDSVKGRFTVSIDNAKNTAYLQMNSLKTEDTAVYYCAAGRYSRVRGWEYDYWGQGTQVTVSSGGGGSGGGGSGGGGS[human IgG1 Fc with changes not spelt out] | 110 nM |
| D10 E10-hFc (S239C F405L/K409R) conjugated to MC-vc-PAB-MMAE (Fc fusion, DAR 2, here or on the partner: MC-vc-PAB-MMAE on Cys 239 (S239C, EU numbering)) chain 1: QVQLVESGGGLVQPGGSLRLSCAASGSIFSVNTMGWYRQAPGKQRDLVAVATSGGTIHYADSVKGRFTISRDNAKNTVYLQMNSLKPEDTAVYYCNLVVPYGMIAGDHDYWGQGTKVTVSSGGGGSGGGGSGGGGS[human IgG1 Fc with changes not spelt out] chain 2: QVQLVESGGGLVQAGGSLRLSCAVSGRALSDYNIGWFRQAPGKEREFVARKTWDGSSTRYDDSVKGRFTVSIEDAKNTAYLQMSSLKTEDTAVYYCAAGRYSRARGWEYDYWGQGTQVTVSSGGGGSGGGGSGGGGS[human IgG1 Fc with changes not spelt out] | 3.9 nM |
| A06 F05-hFc (S239C F405L/K409R) conjugated to MC-vc-PAB-MMAE (Fc fusion, DAR 2, here or on the partner: MC-vc-PAB-MMAE on Cys 239 (S239C, EU numbering)) chain 1: QVHLVESGGGLVQAGGSLRLSCAASGRTFLSMGWFRQAPGKEREFVAAISWTGGSTGYADSVKGRFTISRESDKETMYLQMNSLKPEDTAVYYCAARGDVYYGGDDATRYKYWGQGTQVTVSSGGGGSGGGGSGGGGS[human IgG1 Fc with changes not spelt out] chain 2: QVQLVESGGGLVQAGGSLRLSCAASGRAFGDYNIGWFRQAPGKEREFVARRTWDGSSTRYDDSVKGRFTVSIDNAKNTAYLQMNSLKTEDTAVYYCAAGRYSRVRGWEYDYWGQGTQVTVSSGGGGSGGGGSGGGGS[human IgG1 Fc with changes not spelt out] | 4.6 nM |
| A06 E10-hFc (S239C F405L/K409R) conjugated to MC-vc-PAB-MMAE (Fc fusion, DAR 2, here or on the partner: MC-vc-PAB-MMAE on Cys 239 (S239C, EU numbering)) chain 1: QVHLVESGGGLVQAGGSLRLSCAASGRTFLSMGWFRQAPGKEREFVAAISWTGGSTGYADSVKGRFTISRESDKETMYLQMNSLKPEDTAVYYCAARGDVYYGGDDATRYKYWGQGTQVTVSSGGGGSGGGGSGGGGS[human IgG1 Fc with changes not spelt out] chain 2: QVQLVESGGGLVQAGGSLRLSCAVSGRALSDYNIGWFRQAPGKEREFVARKTWDGSSTRYDDSVKGRFTVSIEDAKNTAYLQMSSLKTEDTAVYYCAAGRYSRARGWEYDYWGQGTQVTVSSGGGGSGGGGSGGGGS[human IgG1 Fc with changes not spelt out] | 3 nM |
| D10 F05-hFc (S239C F405L/K409R) conjugated to MC-vc-PAB-MMAE (Fc fusion, DAR 2, here or on the partner: MC-vc-PAB-MMAE on Cys 239 (S239C, EU numbering)) chain 1: QVQLVESGGGLVQPGGSLRLSCAASGSIFSVNTMGWYRQAPGKQRDLVAVATSGGTIHYADSVKGRFTISRDNAKNTVYLQMNSLKPEDTAVYYCNLVVPYGMIAGDHDYWGQGTKVTVSSGGGGSGGGGSGGGGS[human IgG1 Fc with changes not spelt out] chain 2: QVQLVESGGGLVQAGGSLRLSCAASGRAFGDYNIGWFRQAPGKEREFVARRTWDGSSTRYDDSVKGRFTVSIDNAKNTAYLQMNSLKTEDTAVYYCAAGRYSRVRGWEYDYWGQGTQVTVSSGGGGSGGGGSGGGGS[human IgG1 Fc with changes not spelt out] | 3 nM |
| D10-hFc (S239C) [G4S]3 conjugated to MC-vc-PAB-MMAE (Fc fusion, here or on the partner: MC-vc-PAB-MMAE on Cys 239 (S239C, EU numbering); DAR 2.0) QVQLVESGGGLVQPGGSLRLSCAASGSIFSVNTMGWYRQAPGKQRDLVAVATSGGTIHYADSVKGRFTISRDNAKNTVYLQMNSLKPEDTAVYYCNLVVPYGMIAGDHDYWGQGTKVTVSSGGGGSGGGGSGGGGS[human IgG1 Fc with changes not spelt out] | 50.2 nM |
| E06-hFc (S239C) [G4S]3 conjugated to MC-vc-PAB-MMAE (Fc fusion, here or on the partner: MC-vc-PAB-MMAE on Cys 239 (S239C, EU numbering); DAR 1.87) QVHLVESGGGLVQAGGSLRLSCAASRRSFSEYAMGWFRQAPGKEREFVAAIGWSGVIEYADSVKGRFTISRDNAKDTVYLQMNSLKPEDTAVYYCAAGLGIRVVSQTPAYWGQGTQVTVSSGGGGSGGGGSGGGGS[human IgG1 Fc with changes not spelt out] | > 1000 nM |
| D10 E06-hFc (S239C F405L/K409R) conjugated to MC-vc-PAB-MMAE (Fc fusion, DAR 2, here or on the partner: MC-vc-PAB-MMAE on Cys 239 (S239C, EU numbering)) chain 1: QVQLVESGGGLVQPGGSLRLSCAASGSIFSVNTMGWYRQAPGKQRDLVAVATSGGTIHYADSVKGRFTISRDNAKNTVYLQMNSLKPEDTAVYYCNLVVPYGMIAGDHDYWGQGTKVTVSSGGGGSGGGGSGGGGS[human IgG1 Fc with changes not spelt out] chain 2: QVHLVESGGGLVQAGGSLRLSCAASRRSFSEYAMGWFRQAPGKEREFVAAIGWSGVIEYADSVKGRFTISRDNAKDTVYLQMNSLKPEDTAVYYCAAGLGIRVVSQTPAYWGQGTQVTVSSGGGGSGGGGSGGGGS[human IgG1 Fc with changes not spelt out] | 1.2 nM |
| A06 E06-hFc (S239C F405L/K409R) conjugated to MC-vc-PAB-MMAE (Fc fusion, DAR 2, here or on the partner: MC-vc-PAB-MMAE on Cys 239 (S239C, EU numbering)) chain 1: QVHLVESGGGLVQAGGSLRLSCAASGRTFLSMGWFRQAPGKEREFVAAISWTGGSTGYADSVKGRFTISRESDKETMYLQMNSLKPEDTAVYYCAARGDVYYGGDDATRYKYWGQGTQVTVSSGGGGSGGGGSGGGGS[human IgG1 Fc with changes not spelt out] chain 2: QVHLVESGGGLVQAGGSLRLSCAASRRSFSEYAMGWFRQAPGKEREFVAAIGWSGVIEYADSVKGRFTISRDNAKDTVYLQMNSLKPEDTAVYYCAAGLGIRVVSQTPAYWGQGTQVTVSSGGGGSGGGGSGGGGS[human IgG1 Fc with changes not spelt out] | 2.6 nM |

— patent publication US20260216242A1, “ALPP-SPECIFIC VARIANT ANTIGEN BINDING MOLECULES” (ALMAC DISCOVERY LIMITED, priority 2022, published 2026)
